# Measured values reported in paper PMC4336329 (PLoS ONE, 2015).
# About 14,000 (4.5%) of roughly 310,000 compounds showed an effect of 50% or more. Effects have a minus sign here. The list shows a part of the results.
# Biological target: human ether-à-go-go-related gene (hERG) potassium channel (human, UniProt Q12809)
# Assay: primary screen, population patch clamp on CHO cells stably expressing hERG
# 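Note: peak tail current of the secondary pulse compared with the same well before compound.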
# human ether-à-go-go-related gene (hERG) potassium channel, sequence (Q12809 whole entry, looked up): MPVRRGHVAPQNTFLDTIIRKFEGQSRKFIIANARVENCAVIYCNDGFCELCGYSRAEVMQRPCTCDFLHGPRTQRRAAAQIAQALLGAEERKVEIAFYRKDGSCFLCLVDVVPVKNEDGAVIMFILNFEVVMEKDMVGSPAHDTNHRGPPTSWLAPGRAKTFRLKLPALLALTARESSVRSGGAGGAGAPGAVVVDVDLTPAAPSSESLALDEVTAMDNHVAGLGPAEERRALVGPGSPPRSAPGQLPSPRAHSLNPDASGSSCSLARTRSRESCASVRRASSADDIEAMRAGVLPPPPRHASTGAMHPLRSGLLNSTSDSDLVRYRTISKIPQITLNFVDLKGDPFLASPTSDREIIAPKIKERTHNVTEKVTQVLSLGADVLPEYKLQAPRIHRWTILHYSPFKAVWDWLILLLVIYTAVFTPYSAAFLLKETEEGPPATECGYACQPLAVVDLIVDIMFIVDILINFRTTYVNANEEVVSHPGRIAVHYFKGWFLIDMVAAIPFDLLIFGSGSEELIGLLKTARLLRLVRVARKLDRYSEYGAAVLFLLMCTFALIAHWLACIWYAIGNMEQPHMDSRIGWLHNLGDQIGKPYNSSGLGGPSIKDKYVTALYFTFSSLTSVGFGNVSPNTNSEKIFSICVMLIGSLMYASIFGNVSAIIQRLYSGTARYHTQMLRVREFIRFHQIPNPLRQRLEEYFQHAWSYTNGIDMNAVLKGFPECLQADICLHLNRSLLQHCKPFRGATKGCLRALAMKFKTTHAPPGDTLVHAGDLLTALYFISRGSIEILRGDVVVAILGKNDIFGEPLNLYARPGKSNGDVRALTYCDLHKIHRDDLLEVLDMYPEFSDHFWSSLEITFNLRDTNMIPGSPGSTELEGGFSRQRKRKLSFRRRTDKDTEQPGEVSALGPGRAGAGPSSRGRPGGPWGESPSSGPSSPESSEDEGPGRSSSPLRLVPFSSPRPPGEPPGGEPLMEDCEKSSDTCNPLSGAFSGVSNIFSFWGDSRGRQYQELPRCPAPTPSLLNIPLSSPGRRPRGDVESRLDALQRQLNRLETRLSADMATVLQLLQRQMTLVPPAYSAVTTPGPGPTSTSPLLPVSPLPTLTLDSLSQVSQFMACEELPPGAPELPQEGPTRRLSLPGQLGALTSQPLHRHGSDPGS
row,SMILES,"hERG current change (%, negative = inhibition) at 10uM [%]"
1,Cc1ccccc1-n1c(=O)c2ccccc2n2cnnc12,-7.97
2,COc1ccc(C(C(=O)NC(C)(C)C)N(CCO)C(=O)CCC(=O)Nc2cc(C)on2)cc1 (stereo not drawn),24
3,CC(C)c1ccc2[nH]c3c(c2c1)CCCC3=O,6.64
4,CCN1C(=O)[C@@H]2[C@@H](c3ccc(-c4ccc(OC)cc4)cc3)N3CCC[C@@]3(C(=O)OC)[C@@H]2C1=O.O=C(O)C(F)(F)F,-18.2
5,CCc1ccc(C(=O)NN=C2CCCCCC2)s1,7.65
6,Cc1ccc(S(=O)(=O)N2CCC(C(=O)N3CCC[C@H]3C(=O)NCc3ccco3)CC2)cc1,-10.4
7,CCc1nc2ccccc2c(C(=O)OCC(=O)Nc2cccc(S(=O)(=O)N3CCOCC3)c2)c1C,-1.9
8,CCOC(=O)N1CCC(NC(=O)c2ccc(Cl)cc2)CC1,-14.5
9,Cc1ccc(C2C3=C(CCCC3=O)OC3=C2C(=O)CCC3)cc1,-3.98
10,COc1ccc(CCNC(=O)c2cc(=O)[nH]c3ccc(Br)cc23)cc1OC,21.4
11,CC(C)OCCCNC(=O)c1ccc(C2SCC(=O)N2Cc2ccco2)cc1 (stereo not drawn),-2
12,O=C(c1ccc(F)cc1)N1CCN2C(=O)c3ccccc3C12c1ccccc1 (stereo not drawn),-31.5
13,COc1ccc(OCC(=O)N/N=C2/C=C(C)CC2)cc1,4.42
14,CC1=NN(c2ccc(C)c(C)c2)C(=O)/C1=C/c1ccc2c(c1)n(C)c(=O)n2C,-0.968
15,CC(C)c1nnc(NC(=O)CCC(=O)NC2CCCCC2)s1,1.73
16,CC(C)C(NC(=O)OCc1ccccc1)C(=O)OCC(=O)N1C(C)CCCC1C (stereo not drawn),4.95
17,CCc1nc2scc(-c3ccc(C)cc3)c2c(=O)n1N,-8.41
18,O=C(CSc1ccccn1)Nc1cccc([N+](=O)[O-])c1,2.52
19,N=C1/C(=C/c2cccn2-c2ccc([N+](=O)[O-])cc2)C(=O)N=C2SC=CN12,-4.06
20,Cc1cccc2c1-c1sc(C(=O)Nc3cccc([N+](=O)[O-])c3C)cc1CO2,0.19
21,Nc1c(Br)cc(Br)c(N2CCCC2=O)c1Br,7.05
22,Cc1ccnc(NC(=O)c2cccc(S(=O)(=O)N3CCCC3)c2)c1,-0.622

row,SMILES,"hERG current change (%, negative = inhibition) at 10uM [%]"
1,Cc1cccc(-n2c(SCC(=O)NCc3ccco3)nc3ccccc3c2=O)c1,-17.6
2,Cc1ccc(S(=O)(=O)N2CCN(Cc3ccccc3)CC2)s1,-21.9
3,CC(/C=N/NC(=O)c1ccc(Cn2cc([N+](=O)[O-])cn2)o1)=C\c1ccccc1,-5.3
4,O=C(CSc1nccn1-c1ccc(Cl)cc1)NCc1ccc2c(c1)OCO2,-33.4
5,O=C(CCc1ccccc1)NCC1(c2ccccc2)CCCC1,4.81
6,COc1ccccc1N1CCN(C(c2cccs2)C(C)NC(=O)c2cccnc2)CC1 (stereo not drawn),-22.5
7,CC(=O)Nc1ccc(S(=O)(=O)C(C#N)c2nc3ccccc3nc2NCCCO)cc1 (stereo not drawn),0.646
8,Cc1cc(N2C(=O)CC(C(C)c3ccccc3)C2=O)no1 (stereo not drawn),1.87
9,CC(=O)c1cn(C)c(=O)n(C)c1=O,4.7
10,CC(CCc1ccccc1)NC(=O)CCC(=O)N1CCC(C(=O)O)CC1 (stereo not drawn),20.9
11,CCCCn1nnnc1NCc1cccnc1,8.93
12,CC(C)OC(=O)c1ccc(NC(=O)c2cncc(Br)c2)cc1,-6.9
13,COc1ccc(S(=O)(=O)N(n2c(C)nnc2-n2nc(C)cc2C)S(=O)(=O)c2ccc(OC)cc2)cc1,15.9
14,COC(=O)[C@H](C)NC(=O)Nc1ccc(S(N)(=O)=O)cc1,12.1
15,CCN(CC)CCN1C(=O)C(=O)/C(=C(/O)c2cnn(-c3ccccc3)c2C)C1c1cccnc1 (stereo not drawn),21.3
16,Cl.O=C(NCC(c1cccs1)N1CCOCC1)c1cc2ccccc2o1 (stereo not drawn),-15.7
17,COc1cc2c(cc1OC)CN(CC(=O)Nc1ccc(F)cc1)C(C(=O)O)C2 (stereo not drawn),3.73
18,CCOc1ccc(-n2c(=S)sc3c(=O)n(-c4ccccc4)c(SCC(=O)O)nc32)cc1,-5.31
19,Oc1ccccc1/C=N/n1cnn(Cc2ccccc2Cl)c1=S,13.4
20,COc1cccc(/C=C2\CCC(C3CCCC3)C2=O)c1OC (stereo not drawn),8.7
21,COc1ccc(N(C(=O)c2ccco2)C(C(=O)NC2CCCC2)c2ccc(N3CCOCC3)cc2)c(OC)c1 (stereo not drawn),-9.32
22,CN(C)/C=C/C(=O)c1nn(-c2ccc(F)cc2)ccc1=O,27.6

row,SMILES,"hERG current change (%, negative = inhibition) at 10uM [%]"
1,COc1ccccc1NS(=O)(=O)c1cc(C(=O)NCC2CCCO2)ccc1C (stereo not drawn),-36.8
2,COC(=O)c1cc(S(=O)(=O)NC2CCN(Cc3ccccc3)CC2)cn1C,0.48
3,Cc1cc(C(=O)OCC(=O)NCc2ccc(F)cc2)c2ccccc2n1,-9.67
4,FC(F)(F)C(F)(F)c1nnc2ccc(-n3ccnc3)nn12,17.7
5,CC(C)c1nc2n[nH]c(N)c2c2c1CCCC2,6.67
6,Cc1cc(=O)oc2cc(NC(=O)Cc3ccccc3)ccc12,14.6
7,C=CCNC(=O)c1onc(CSc2ccc(F)c(F)c2)c1C(=O)NCC=C,-64.5
8,O=C(CCc1nc2sc3c(c2c(=O)[nH]1)CCCC3)NCCOc1ccccc1,-12.4
9,COCCNC(=O)CN(C(=O)CCC(=O)Nc1ccccn1)c1ccccc1OC,12.5
10,CSc1nc2ccc(NC(=O)c3ccc(=O)n(C)n3)cc2s1,-6.11
11,O=C(c1ccc(Cn2cnnn2)cc1)N1CCCC(Nc2ccc(F)cc2)C1 (stereo not drawn),-0.196
12,Cc1ccc(Sc2ncccc2COC(=O)Nc2ccccc2)cc1,11.3
13,Cc1ccc(-n2c(O)c(C=NC3CCCC3)c(=O)[nH]c2=O)c(C)c1,18
14,N#Cc1c(N)nc2c(c1-c1cccnc1)CCCCC2,-16.5
15,Cc1cc(C(=O)NCC(=O)OCC(=O)Nc2ccc(OC(F)F)cc2)ccc1[N+](=O)[O-],-67.8
16,Br.COc1ccccc1N1CCN(CCCCN2C(=O)c3ccccc3C2=O)CC1,-53.5
17,O=C(NC(=S)Nc1ccccn1)c1ccccc1,14.1
18,COc1ccccc1S(=O)(=O)Cc1ccc(C(=O)NCc2cccnc2)o1,5.9
19,Cc1cccc(C(=O)Nc2ccc(C(=O)N/N=C/c3ccco3)cc2)c1,4.57
20,CCc1ccc(N2C(=O)c3ccc4c5c(ccc(c35)C2=O)CC4)cc1,-5.36
21,COc1ccc(NC(=O)CSc2nnc(Cn3c(=O)sc4ccccc43)n2C)cc1,0.443
22,Cc1c(NC(=O)CSc2ccccc2F)c(=O)n(-c2ccccc2)n1C,22

row,SMILES,"hERG current change (%, negative = inhibition) at 10uM [%]"
1,CC(C)(C)NC(=O)COC(=O)c1ccccc1NC(=O)c1ccco1,-7.06
2,Cc1cccc2c1N(C)C(=O)C2=O,17.1
3,COC(=O)C1(NC(=O)NC2CCCCC2)CCCCC1,15.3
4,CCc1ccccc1NC(=O)N1CCC(NC(=O)C(Cc2ccc(OC)c(OC)c2)NC(C)=O)CC1 (stereo not drawn),14.4
5,COc1ccc(S(=O)(=O)NCC2CCC(C(=O)O)CC2)cc1 (stereo not drawn),15.5
6,Cc1cc(C)cc(NC(=O)CSc2nc(N)c(NC(=O)c3ccc(Br)o3)c(=O)[nH]2)c1,20.8
7,Cn1ncc2c(NNC(=O)Cc3ccccc3)ncnc21,9.17
8,COC(=O)Nc1ccc(S(=O)(=O)N2CCCCC2C(=O)NCc2ccco2)cc1 (stereo not drawn),8.79
9,Cc1cc(C(=O)N/N=C/c2cc(Br)ccc2OC(=O)c2ccccc2)n[nH]1,12.8
10,COC(=O)c1sccc1NC(=O)CC1NCCNC1=O (stereo not drawn),0.0435
11,COC(=O)c1c(NC(=O)COC(=O)CC(NC(C)=O)c2ccccc2)sc(C)c1C (stereo not drawn),19.2
12,NC(=S)Nc1ncc(CCN2CCOCC2)c(-c2ccc(F)cc2)n1,-47.7
13,COc1cc(CCC(=O)Nc2cc(C)cc(C)c2)cc(OC)c1OC,23
14,CCCCNc1nc(CC)c2c(c1C#N)CCCC2,8.24
15,CC(=O)Nc1ccc(NC(=O)C2CCCCN2S(=O)(=O)c2ccc(C(C)(C)C)cc2)cc1 (stereo not drawn),5.1
16,CCOc1ccc(Br)cc1S(=O)(=O)Nc1ccc(C(=O)Nc2ccc(C)cc2)cc1,-8.65
17,COc1cc(C)nc(Oc2ccc(OCCOc3ccccc3)nn2)n1,-2.83
18,O=C(Nc1ccc(Oc2ncnc3cc(Cl)ccc23)nc1)c1ccc(F)cc1,10.4
19,COc1ccc(OC)c(N2C(=O)CC(Cc3ccc(C)cc3)C2=O)c1 (stereo not drawn),-2.87
20,O=C(NCc1ccccc1)C1CCCN(c2cnccn2)C1 (stereo not drawn),-28.9
21,COc1ccc(C2CC(c3ccc(C)cc3)Nc3ncnn32)cc1 (stereo not drawn),-29.3
